The supplement of paper PMC4723716
± gives the uncertainty stated by the source. The full ranking holds about 9,900 compounds; the median of “viability index relative to DMSO control” is about 1, and the lowest 2% start at about 0.85. Some of the results follow.

The compounds below were run on Plasmodium falciparum NF54 stage V gametocytes (assay: viability index relative to DMSO control (fraction); higher = less gametocyte killing). Details: 2.5 µM, library set: Broad Institute DOS, incubation time: 72 h.
Summary of the method: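 Compound at 2.5 µM was incubated for 72 hr at 37°C under low oxygen with P. falciparum NF54 stage V gametocytes (0.75% gametocytemia, 1.25% hematocrit, 10 µl, serum-free screening medium) in 1,536-well plates. Staining used 3 µl of 2.5 µM MitoTracker Red CMXRos plus 0.13% saponin for one to two hours, and red particles of 20–70 µm2 were counted in one imaged field per well. Each viability index is that count relative to the plate mean of solvent-only wells.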

| SMILES | viability index |
| --- | --- |
| CO[C@@H]1CN(C)C(=O)c2cc(NC(=O)c3ccc(Oc4ccccc4)cc3)ccc2OC[C@H](C)NC[C@H]1C | 0.983 ± 0.053 |
| CN1[C@H](CO)[C@H]2c3ccccc3N(C(=O)Nc3cc(F)ccc3F)C[C@H]21 | 1 ± 0.052 |
| COc1ccc(CNC(=O)N(C)C[C@@H]2OCc3ccccc3-c3c(n(C)c4ccccc34)C(=O)N([C@H](C)CO)C[C@H]2C)cc1 | 0.994 ± 0.019 |
| O=C(c1cnccn1)N1CC(=O)N2[C@@H](CO)[C@H](c3ccc(-c4cccc(F)c4)cc3)[C@@H]2C1 | 1 ± 0.049 |
| CN1c2ccc(Br)cc2[C@H]2[C@H](CCN2C(=O)CN2CCOCC2)[C@H]1CO | 1.04 ± 0.031 |
| CN1C(=O)c2cc(NC(=O)C3CCOCC3)ccc2OC[C@H]2O[C@H](CC(=O)NCc3ccccc3F)CC[C@@H]21 | 0.913 ± 0.099 |
| C[C@@H]1CCCCO[C@@H](CN(C)Cc2ccncc2)[C@H](C)CN([C@@H](C)CO)C(=O)c2cc(NS(=O)(=O)c3ccc(Cl)cc3)ccc2O1 | 1.01 ± 0.014 |
| CO[C@H]1CC[C@H]2CCOc3ccc(C#N)cc3C(=O)N(C)[C@@H](C)C(=O)N(C)C[C@@H]1O2 | 1.08 ± 0.015 |
| O=C(C1CC1)N1CC[C@@H]2[C@@H](CO)Nc3ccc(Br)cc3[C@@H]21 | 1 ± 0.08 |
| C[C@H]1CN([C@@H](C)CO)C(=O)c2c(c3ccccc3n2C)-c2ccccc2CO[C@@H]1CN(C)S(=O)(=O)c1ccc([N+](=O)[O-])cc1 | 0.936 ± 0.032 |
| CO[C@H](CN(C)S(=O)(=O)c1cn(C)cn1)[C@H](C)CN(C(=O)Nc1ccc(C(F)(F)F)cc1)[C@@H](C)CO | 1.08 ± 0.038 |
| C[C@H]1CN([C@@H](C)CO)C(=O)c2cc(C3=CCCC3)cnc2O[C@@H]1CN(C)C(=O)Nc1ccc(C(F)(F)F)cc1 | 0.992 ± 0.025 |
| COC(=O)[C@H]1[C@H](CO)[C@H]2Cn3c(ccc(-c4ccncc4)c3=O)[C@H]2N1Cc1ccccc1F | 0.904 ± 0.13 |
| CCN1[C@@H]2c3ccc(-c4ccncc4)c(=O)n3C[C@H]1[C@H](CO)[C@H]2C(=O)NCCc1cn(C)cn1 | 0.92 ± 0.029 |
| C[C@H](CO)N1C[C@H](C)[C@H](CN(C)S(C)(=O)=O)Oc2ncc(-c3ccc(F)cc3)cc2C1=O | 1.05 ± 0.077 |
| C[C@H]1CN([C@@H](C)CO)C(=O)c2c(c3ccccc3n2C)-c2ccccc2CO[C@@H]1CN(C)C | 1.09 ± 0.061 |
| C[C@@H]1CN([C@H](C)CO)C(=O)CCCn2nncc2CO[C@@H]1CN(C)C(=O)Nc1cccc(Oc2ccccn2)c1 | 0.984 ± 0.028 |
| C[C@H](CO)N1C[C@H](C)[C@@H](CN(C)S(C)(=O)=O)Oc2ccc(NC(=O)Nc3ccc(F)cc3)cc2CC1=O | 0.965 ± 0.028 |
| CN1C(=O)c2cc(NS(=O)(=O)c3cccc(F)c3)ccc2OC[C@@H]2O[C@H](CC(=O)N3CCc4ccccc4C3)CC[C@@H]21 | 0.9112 ± 0.0034 |
| O=C(CN1CCOCC1)N1CC(=O)N2[C@@H](CO)[C@H](c3ccc(-c4cccc(F)c4)cc3)[C@@H]2C1 | 1.1 ± 0.027 |
| COc1ccc2c3c([C@@H](CO)N(C[C@]33CCN(CC3)C(=O)C3CCCC3)S(C)(=O)=O)n(C)c2c1 | 1.02 ± 0.079 |
| O=C1CNC[C@@H]2[C@H](c3ccc(C4=CCCC4)cc3)[C@H](CO)N12 | 1.036 ± 0.0042 |
| O=C(c1ccccn1)N1CC2(C1)[C@H](c1ccccc1)[C@@H](CO)N2Cc1ccc(F)cc1 | 1.0485 ± 0.00086 |

| SMILES | viability index |
| --- | --- |
| COCCNC(=O)C[C@@H]1CC[C@@H]2[C@H](COC[C@@H](O)CN2C(=O)c2cc(Cl)cc(Cl)c2)O1 | 0.948 ± 0.032 |
| C[C@@H]1CN([C@@H](C)CO)C(=O)c2cc(NC(=O)Cn3cnnn3)ccc2O[C@@H]1CN(C)Cc1ccc(C(=O)Nc2ccccc2N)cc1 | 1 ± 0.11 |
| O=C(C[C@H]1CC[C@@H](NC(=O)c2ccc3c(c2)OCO3)[C@@H](CO)O1)NCc1ccc(Oc2ccccc2)cc1 | 1.09 ± 0.022 |
| O=C(NC[C@@H]1[C@@H](c2ccccc2)[C@@H](CO)N1Cc1ccccn1)C1CCCC1 | 0.963 ± 0.067 |
| CO[C@@H]1CN(C)C(=O)c2ccc(NC(=O)c3cc(C)on3)cc2OC[C@@H](C)NC[C@@H]1C | 1 ± 0.043 |
| CCCNC(=O)N[C@H]1C=C[C@@H](CC(=O)N2CCN(C)CC2)O[C@@H]1CO | 0.988 ± 0.032 |
| CC(=O)N1[C@H](CO)[C@@H](c2ccccc2)[C@H]1CN(C)S(=O)(=O)c1ccccc1 | 1.03 ± 0.052 |
| Cc1ccc(S(=O)(=O)N2CC[C@@H]3[C@H]2c2cc(-c4cccc(C(=O)N(C)C)c4)ccc2N[C@@H]3CO)cc1 | 0.885 ± 0.055 |
| N#C[C@@H]1[C@@H](c2ccccc2-c2ccccc2F)[C@@H](CO)N1C(=O)C1CCC1 | 1.14 ± 0.17 |
| OC[C@@H]1[C@@H](c2ccccc2)C2(CN(Cc3nccs3)C2)N1CC1CCOCC1 | 1.04 ± 0.06 |
| C[C@@H]1C/C=C/C[C@H](c2cccc(Cl)c2)NC(=O)[C@@H](Cc2ccccc2)N(C)C(=O)c2ccccc2O1.C[C@@H]1C/C=C\C[C@H](c2cccc(Cl)c2)NC(=O)[C@@H](Cc2ccccc2)N(C)C(=O)c2ccccc2O1 | 0.9516 ± 0.0088 |
| O=C1CCC(=O)N[C@H](c2ccc(F)cc2)C/C=C\C[C@@H](c2ccc(F)cc2)N1 | 0.946 ± 0.032 |
| CC(C)C#Cc1ccc([C@@H]2[C@H]3CN(S(=O)(=O)c4ccccc4)CC(=O)N3[C@H]2CO)cc1 | 0.976 ± 0.091 |
| C[C@@H]1CN([C@H](C)CO)C(=O)c2cc(C#CC3(O)CCCC3)cnc2O[C@H]1CN(C)S(=O)(=O)c1cccc(F)c1 | 1.03 ± 0.049 |
| C[C@@H]1CN([C@@H](C)CO)C(=O)Cc2cc(N(C)C)ccc2O[C@H]1CN(C)Cc1ccc(-c2ccccc2)cc1 | 0.902 ± 0.065 |
| Cc1noc(C)c1NC(=O)Nc1ccc2c(c1)C(=O)N(C)[C@H]1CC[C@H](CC(=O)N[C@H]3CCN(Cc4ccccc4)C3)O[C@H]1CO2 | 1 ± 0.08 |
| COc1ccc2c3c([nH]c2c1)[C@H](CO)N(C[C@]31CCN(Cc2ccncc2)CC1)C(=O)CC1CC1 | 0.934 ± 0.098 |
| CC1C=NC(S(=O)(=O)N2CC[C@H]3[C@@H](CO)N(C)c4ccc(C5=CCCCC5)cc4[C@H]32)=N1 (some centres undefined) | 1.15 ± 0.072 |
| N#Cc1ccc(-c2cccc(-c3nc(C(=O)O)cc4c3[C@H](CCO)N(CC3CCOCC3)C4)c2)cc1 | 0.954 ± 0.064 |
| COc1ccc(S(=O)(=O)Nc2ccc3c(c2)CC(=O)N([C@H](C)CO)C[C@@H](C)[C@H](CN(C)C(=O)Nc2c(C)noc2C)O3)cc1 | 0.936 ± 0.14 |
| COc1ccccc1-c1ccc([C@@H]2[C@H](CO)N3CCCCN(C(=O)c4cccnc4)C[C@@H]23)cc1 | 0.978 ± 0.029 |
| OC[C@H]1[C@H](c2ccc(-c3cccc(F)c3)cc2)[C@H]2CN(Cc3cncnc3)CCCCN21 | 0.974 ± 0.075 |
| CN(C)CC#Cc1ccc([C@@H]2[C@@H](CO)N3C(=O)CN(C(=O)CN(C)C)C[C@H]23)cc1 | 0.989 ± 0.024 |

| SMILES | viability index |
| --- | --- |
| COc1ccc(S(=O)(=O)Nc2cccc3c2O[C@H](CN(C)CC2CCCCC2)[C@@H](C)CN([C@H](C)CO)C3=O)cc1 | 0.913 ± 0.053 |
| CN1CCN(C(=O)C[C@H]2CC[C@@H]3[C@H](COc4ccc(NC(=O)C5CCOCC5)cc4C(=O)N3C)O2)CC1 | 1.08 ± 0.019 |
| COc1ccc2c3c([C@H](CO)N(Cc4cc(OC)cc(OC)c4)C[C@]33CCN(CC3)S(=O)(=O)c3cn(C)cn3)n(C)c2c1 | 0.981 ± 0.032 |
| CC(C)NC(=O)Nc1ccc2c(c1)C(=O)N([C@H](C)CO)C[C@H](C)[C@H](CN(C)C(=O)C1CCCCC1)OCCCC[C@@H](C)O2 | 1.03 ± 0.018 |
| Cc1noc(C)c1NC(=O)N1C[C@@H](O)COC[C@H]2O[C@@H](CC(=O)N[C@@H]3CCN(Cc4ccccc4)C3)CC[C@@H]21 | 0.994 ± 0.052 |
| O=C(NC[C@H]1[C@@H](c2ccccc2)[C@H](CO)N1Cc1cccnc1)c1ccccn1 | 1.025 ± 0.0078 |
| COCC#Cc1ccc2c(c1)O[C@@H](CN(C)C(=O)C1CCOCC1)[C@H](C)CN([C@@H](C)CO)S2(=O)=O | 1.05 ± 0.063 |
| O=C(Nc1cccc(Cl)c1)N[C@@H]1CC[C@H](CCn2cc(Cc3ccccc3)nn2)O[C@H]1CO | 1.15 ± 0.057 |
| OC[C@H]1[C@H](c2ccc(C#CC3(O)CCCC3)cc2)[C@@H]2CN(Cc3cncnc3)CCCCN12 | 1.05 ± 0.052 |
| O=C(c1cccc(F)c1)N1CC(=O)N2[C@@H](CO)[C@H](c3ccc(C4=CCCCC4)cc3)[C@@H]2C1 | 1.05 ± 0.043 |
| C[C@H](CO)N1C[C@H](C)[C@@H](CN(C)C(=O)CCC(F)(F)F)OCCCC[C@H](C)Oc2ccc(NC(=O)C3CCCCC3)cc2C1=O | 1.12 ± 0.084 |
| COc1ccc(cc1)S(=O)(=O)N1C[C@@]2(C1)CN([C@@H](CO)c1c2c2ccc(OC)cc2n1C)C(=O)c1cccnc1 | 0.976 ± 0.063 |
| N#C[C@@H]1[C@@H](c2ccccc2-c2ccccc2)[C@H](CO)N1C(=O)Cc1ccncc1 | 1.1 ± 0.2 |
| COc1ccccc1-c1ccc2n(c1=O)C[C@@H]1[C@@H](CO)[C@H](C(=O)NCc3ccccc3Cl)N[C@H]21 | 1.03 ± 0.013 |
| CN(C)C(=O)c1cccc(-c2ccccc2[C@H]2[C@@H](C#N)N(C(=O)C3CCCCC3)[C@H]2CO)c1 | 1.06 ± 0.038 |
| CN(C)CC#Cc1ccc([C@@H]2[C@H](C#N)N[C@@H]2CO)cc1 | 1.12 ± 0.092 |
| O=C1C[C@H](c2ccccc2)C(=O)N[C@@H](c2ccccc2)C/C=C\C[C@@H](c2ccccc2)N1 | 0.971 ± 0.084 |
| C[C@@H]1CN([C@H](C)CO)C(=O)c2cc(NS(=O)(=O)c3ccc(F)cc3)ccc2O[C@@H]1CN(C)C(=O)Nc1ccccc1 | 0.966 ± 0.11 |
| O=C(C[C@H]1CC[C@H](NC(=O)CN2CCOCC2)[C@@H](CO)O1)NC1CCC1 | 1.1 ± 0.052 |
| O=C(c1cccc(F)c1)N1CCCCN2[C@H](CO)[C@H](c3ccc(C#CC4(O)CCCC4)cc3)[C@@H]2C1 | 1.03 ± 0.052 |
| CCCC(=O)N1C[C@@]2(C1)CN([C@H](CO)c1c2c2ccc(OC)cc2n1C)C(=O)Nc1cccc(F)c1 | 0.9437 ± 0.0032 |
| CC(C)N(C[C@@H]1N[C@@H](CO)[C@@H]1c1ccccc1)S(=O)(=O)c1ccccc1 | 0.9764 ± 0.0057 |
| COc1ccc(C[C@@H]2CCn3nncc3COC[C@H](c3ccccc3)NC2=O)cc1 | 0.984 ± 0.013 |
